Assay results: the antibiotic and cytotoxicity screens of Wong et al. (2023)
Some of the results follow.

Assays:
HSkMC = human skeletal muscle cells; assay: cytotoxicity call (relative viability < 0.9); settings: 10 µM
HepG2 = assay: cytotoxicity call (relative viability < 0.9); settings: 10 µM
S. aureus RN4220 = assay: growth inhibition call (relative growth <= 0.2); settings: 50 µM

Cc1noc(C)c1S(=O)(=O)N(C)C[C@H]1OCCCC[C@@H](C)Oc2ccc(N(C)C)cc2C(=O)N([C@H](C)CO)C[C@@H]1C
inactive: cytotoxicity call (HSkMC) | cytotoxicity call (HepG2) | growth inhibition call (S. aureus RN4220)

C[C@@H]1CN([C@@H](C)CO)C(=O)c2cccc(NS(C)(=O)=O)c2O[C@@H]1CN(C)Cc1ccc(C(=O)O)cc1
inactive: cytotoxicity call (HSkMC) | cytotoxicity call (HepG2) | growth inhibition call (S. aureus RN4220)

C[C@@H]1CN([C@@H](C)CO)C(=O)c2cc(NC(=O)c3ccncc3)ccc2O[C@@H](C)CCCCO[C@H]1CN(C)S(=O)(=O)c1cn(C)cn1
inactive: cytotoxicity call (HSkMC) | cytotoxicity call (HepG2) | growth inhibition call (S. aureus RN4220)

Cn1cnc(CCNC(=O)C[C@H]2CC[C@H]3[C@@H](COC[C@@H](O)CN3C(=O)Nc3ccc(Cl)cc3)O2)c1
inactive: cytotoxicity call (HSkMC) | cytotoxicity call (HepG2) | growth inhibition call (S. aureus RN4220)

Cc1ccc(S(=O)(=O)N(C)C[C@H]2OCCCC[C@H](C)Oc3ccc(NC(=O)Cc4ccccc4)cc3C(=O)N([C@H](C)CO)C[C@@H]2C)cc1
inactive: cytotoxicity call (HSkMC) | cytotoxicity call (HepG2) | growth inhibition call (S. aureus RN4220)

C[C@H](CO)N1C[C@H](C)[C@H](CN(C)C(=O)Nc2ccc3c(c2)OCO3)Oc2ccc(NS(C)(=O)=O)cc2C1=O
inactive: cytotoxicity call (HSkMC) | cytotoxicity call (HepG2) | growth inhibition call (S. aureus RN4220)

C[C@H]1CN([C@@H](C)CO)C(=O)c2cc(NC(=O)c3ccncc3)ccc2O[C@@H]1CN(C)Cc1ccc2c(c1)OCO2
inactive: cytotoxicity call (HSkMC) | cytotoxicity call (HepG2) | growth inhibition call (S. aureus RN4220)

CCCCCN1CC=C[C@@]23O[C@@H]4C=CCOC(=O)[C@@H]4[C@H]2C(=O)N(CCO)[C@@H]3C1=O
inactive: cytotoxicity call (HSkMC) | cytotoxicity call (HepG2) | growth inhibition call (S. aureus RN4220)

C[C@@H]1CN([C@@H](C)CO)C(=O)c2cc(NS(=O)(=O)c3ccc(Cl)cc3)ccc2O[C@@H](C)CCCCO[C@H]1CN(C)C(=O)Nc1cccc2ccccc12
inactive: cytotoxicity call (HSkMC) | cytotoxicity call (HepG2) | growth inhibition call (S. aureus RN4220)
